Experimental data published in PubChem BioAssay AID2094 (Broad Institute, 2009).
Out of some 300,000 compounds screened, about 1,200 (0.4%) were called active. Inconclusive results, whose numbers are uncertain, are shown with a selection of clear calls. Rule as the data show it: active = activity change below about -75% (passing the limit was not always enough); inconclusive = no clear call, values can overlap the other calls.

Experiment: Vibrio harveyi AI-2 quorum sensing modulators, primary screen, JMH597 strain, luminescence/OD600 ratio (AID 2094);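 also: luminescence divided by OD600 gain over 9 h not by final OD600 alone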
Details: Vibrio harveyi JMH597 AI-2 luminescence/OD600 ratio, 9 h; at 7.5 µM; stronger effect = lower value; 0 = neutral-control median; strain lacks LuxN and CqsS sensors

Row | SMILES | activity change
1 | O=C(NNc1nc2ccccc2s1)c1ccccc1F | inconclusive: -69.7%
2 | O=C(COc1cccc(Cl)c1)Nc1ccc2c(c1)CCC2 | inconclusive: -46.3%
3 | COc1ccc(CNc2oc(-c3ccccc3)nc2C#N)cc1 | active: -95.4%
4 | COC(=O)C1=C(C)NC(=S)NC1c1ccc(-c2cccc(Cl)c2)o1 (configuration not stated) | inactive: -10.2%
5 | CC(C)(NS(=O)(=O)OCC(Cl)(Cl)Cl)c1ccccc1 | inactive: 3.66%
6 | O=c1ccc2[n+]([O-])c3ccc(O)cc3oc-2c1 | active: -418%
7 | CCOC(=O)c1cccc(NC(=O)C(C)N2C(=O)c3ccccc3C2=O)c1 (configuration not stated) | active: -94.6%
8 | O=C(CSCCO)Nc1ccc(C2CCCCC2)cc1 | inconclusive: -74.3%
9 | COc1ccc(Sc2cnn(-c3ccccc3)c(=O)c2Cl)cc1 | inconclusive: -71.8%
10 | Cc1cccc(OCC(=O)Nc2ccc(S(=O)(=O)N3CCCC3)cc2)c1 | active: -97.3%
11 | CCc1c(C)nc(Nc2nc(C)c3ccc(OC)cc3n2)[nH]c1=O | inactive: 17.5%
12 | O=C(OCc1ccc2c(c1)OCO2)c1ccc(S(=O)(=O)N2CCCC2)cc1 | inconclusive: -60.1%
13 | COc1ccccc1NC(=S)NNC(=S)Nc1ccc(OC(F)F)cc1 | inconclusive: -76.3%
14 | CCOc1ccc(NS(=O)(=O)c2ccc(N)cc2)cc1 | inconclusive: -79.4%
15 | COc1ccc(OCC(=O)OCC(=O)N2CC(=O)Nc3ccccc32)cc1 | inconclusive: -63%
16 | Nc1nc(Cl)nc2c1ncn2[C@@H]1O[C@H](CO)[C@@H](O)[C@H]1O | inconclusive: -12.8%
17 | Cn1cccc1C(=O)Nc1nc(-c2ccccn2)cs1 | inconclusive: -45%
18 | CCc1ccc(CNC(=O)CCS(=O)(=O)Cc2ccc(C)cc2)cc1 | inconclusive: -60.1%
19 | Cc1cc(C[n+]2ccccc2)c2nsnc2c1 | inactive: 35%
20 | Cc1oc(-c2ccccc2F)nc1CS(=O)CC(=O)NCc1ccc2c(c1)OCO2 (configuration not stated) | inactive: 33.5%
21 | COc1ccc(COC(=O)Nc2cc3c(C(F)(F)F)nn(C)c3s2)cc1 | active: -77.1%
22 | Cc1cccc(N(CC(=O)NC2CCCC2)C(=O)CCCC(=O)Nc2ccccn2)c1 | inactive: 16.9%
23 | C/C(=C\C(=O)OCCCCCCCCC(=O)O)C[C@@H]1OC[C@H](C[C@@H]2O[C@H]2[C@@H](C)[C@H](C)O)[C@@H](O)[C@H]1O | active: -173%
24 | CS(=O)(=O)N1CCc2cc(C(=O)OCC(=O)c3ccccc3)ccc21 | active: -77.4%

Row | SMILES | activity change
25 | Cc1onc(NC(=O)c2ccc([N+](=O)[O-])o2)c1Br | inconclusive: -14.4%
26 | Nc1cc(S(=O)(=O)Nc2ccc(Br)cc2)ccc1Cl | active: -76%
27 | c1ccc(Oc2cc(-c3ccccc3)ncn2)cc1 | active: -93.3%
28 | Nc1c(S(=O)(=O)c2ccccc2)nnn1-c1ccccc1 | active: -97.2%
29 | COc1ccc(OC)c(C(=O)c2coc3cc(Br)c(O)c(Br)c23)c1 | inactive: 14.3%
30 | CCSc1nsc(NC(=O)Nc2cccc(C(C)=O)c2)n1 | inconclusive: -74.8%
31 | O=C(CN1C(=O)c2ccccc2C1=O)Nc1ccc(-c2nc3ccccc3o2)cc1 | active: -91.6%
32 | COc1ccc(-c2ccc3c(N)c(C(=O)c4ccc(OC)c(OC)c4)sc3n2)cc1 | inactive: 12.4%
33 | COc1ccc(C(=O)C2CCCN(Cc3ccc4nonc4c3)C2)cc1OC (configuration not stated) | inactive: 16.1%
34 | O=C(O)c1ccc(N/N=C/c2ccc3c(c2)OCO3)cc1 | active: -84.7%
35 | O=C(c1cc2cc(F)ccc2[nH]1)N1CCN(Cc2ccc3c(c2)OCO3)CC1 | inconclusive: -72.5%
36 | Cc1ccc(S(=O)(=O)N/N=C/c2cccs2)cc1 | inconclusive: -51.4%
37 | Cc1ccc(S(=O)(=O)N2CCN(C(=O)c3cccs3)CC2)c(C)c1 | inactive: 13.8%
38 | COc1ccc(CCn2c(C)cc(C(=O)COC(=O)c3cnc(C)cn3)c2C)cc1 | inactive: 33.9%
39 | O=C(NNC(=O)c1cnccn1)c1ccc(Cl)c(Cl)c1 | active: -288%
40 | C[C@H](NC(=O)c1nc[nH]c1C(=O)N[C@@H](Cc1ccccc1)C(=O)OC(C)(C)C)c1ccccc1 | inactive: 37.4%
41 | O=C(NCc1nc2ccccc2[nH]1)c1ccc(S(=O)(=O)N2CCCC2)cc1 | inconclusive: -69.5%
42 | CC(C)(C)CC(=O)Nc1nnc(-c2cccs2)s1 | inactive: 35.6%
43 | Cc1ccc2[nH]c(CNC(=O)c3ccccc3F)cc2c1 | inconclusive: -73.5%
44 | Cc1ccc(CNC(=O)Nc2ccccc2)cc1 | active: -90.9%
45 | CCS(=O)(=O)N1Cc2ccccc2CC1C(=O)OCC(=O)Nc1ccc(SC(F)F)cc1 (configuration not stated) | inconclusive: -53.2%
46 | COc1ccc(-c2noc(CCc3ccccc3)n2)cc1 | inconclusive: -71%
47 | O=C(Cc1c[nH]c2ccccc12)NCc1ccc2c(c1)OCO2 | inconclusive: -76%
